The target in experiment [1] is tankyrase 1 (human (endogenous in HEK293T)) (UniProt O95271). In words: co-IP; endogenous proteins; HEK293T WT cell lysates (TNE buffer: 10 mM Tris pH 7.8, 1% Nonidet P-40, 0.15 M NaCl, 1 mM EDTA) immunoprecipitated with control or TNKS1 IgG (rabbit anti-tankyrase 465) and Protein G-Sepharose, immunoblot.
The target of another experiment is T1, GFP-NKD2 WT (human) (UniProt Q969F2).
T1 sequence: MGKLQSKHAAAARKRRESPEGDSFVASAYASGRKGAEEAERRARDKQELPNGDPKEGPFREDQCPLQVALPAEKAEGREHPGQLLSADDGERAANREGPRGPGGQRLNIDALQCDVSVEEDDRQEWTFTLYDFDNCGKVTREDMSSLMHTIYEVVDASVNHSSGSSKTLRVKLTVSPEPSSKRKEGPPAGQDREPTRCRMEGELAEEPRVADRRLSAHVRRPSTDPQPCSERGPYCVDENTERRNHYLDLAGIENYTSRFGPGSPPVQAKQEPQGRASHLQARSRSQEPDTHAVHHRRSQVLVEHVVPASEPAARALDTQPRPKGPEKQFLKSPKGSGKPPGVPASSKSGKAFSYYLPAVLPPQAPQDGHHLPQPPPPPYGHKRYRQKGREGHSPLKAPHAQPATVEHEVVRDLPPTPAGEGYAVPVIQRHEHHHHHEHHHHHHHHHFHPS
In words: co-IP; HEK293T cells transfected with GFP, GFP-NKD2 WT or GFP-NKD2 Mut; lysates (TNE buffer) immunoprecipitated with GFP antibody, immunoblot for endogenous tankyrase. In general terms: In western blotting, separated proteins are transferred to a membrane and probed.

Amino acid sequences for entries named in this document (tags omitted).
UniProt O15169: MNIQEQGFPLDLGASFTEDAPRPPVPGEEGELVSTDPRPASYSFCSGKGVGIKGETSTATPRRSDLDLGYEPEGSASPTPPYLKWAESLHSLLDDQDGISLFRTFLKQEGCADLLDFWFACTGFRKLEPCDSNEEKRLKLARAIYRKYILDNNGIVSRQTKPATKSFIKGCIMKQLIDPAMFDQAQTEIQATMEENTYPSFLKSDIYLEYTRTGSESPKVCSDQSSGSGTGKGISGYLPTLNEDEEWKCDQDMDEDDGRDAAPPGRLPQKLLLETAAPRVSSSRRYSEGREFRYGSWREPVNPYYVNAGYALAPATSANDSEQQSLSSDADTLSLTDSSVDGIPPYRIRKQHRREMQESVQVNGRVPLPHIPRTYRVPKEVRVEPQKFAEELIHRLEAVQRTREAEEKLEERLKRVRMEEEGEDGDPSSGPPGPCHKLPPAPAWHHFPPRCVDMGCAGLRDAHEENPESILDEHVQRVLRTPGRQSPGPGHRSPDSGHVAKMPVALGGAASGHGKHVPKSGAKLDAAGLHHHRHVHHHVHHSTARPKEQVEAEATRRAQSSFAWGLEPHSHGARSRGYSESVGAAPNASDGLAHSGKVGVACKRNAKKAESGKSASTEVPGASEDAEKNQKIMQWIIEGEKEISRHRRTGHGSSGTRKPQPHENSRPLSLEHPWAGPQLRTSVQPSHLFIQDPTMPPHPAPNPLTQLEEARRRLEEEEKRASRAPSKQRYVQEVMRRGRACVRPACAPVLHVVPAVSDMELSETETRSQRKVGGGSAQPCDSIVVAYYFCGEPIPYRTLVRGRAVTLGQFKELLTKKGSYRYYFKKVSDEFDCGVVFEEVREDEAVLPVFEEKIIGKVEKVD
UniProt O96017: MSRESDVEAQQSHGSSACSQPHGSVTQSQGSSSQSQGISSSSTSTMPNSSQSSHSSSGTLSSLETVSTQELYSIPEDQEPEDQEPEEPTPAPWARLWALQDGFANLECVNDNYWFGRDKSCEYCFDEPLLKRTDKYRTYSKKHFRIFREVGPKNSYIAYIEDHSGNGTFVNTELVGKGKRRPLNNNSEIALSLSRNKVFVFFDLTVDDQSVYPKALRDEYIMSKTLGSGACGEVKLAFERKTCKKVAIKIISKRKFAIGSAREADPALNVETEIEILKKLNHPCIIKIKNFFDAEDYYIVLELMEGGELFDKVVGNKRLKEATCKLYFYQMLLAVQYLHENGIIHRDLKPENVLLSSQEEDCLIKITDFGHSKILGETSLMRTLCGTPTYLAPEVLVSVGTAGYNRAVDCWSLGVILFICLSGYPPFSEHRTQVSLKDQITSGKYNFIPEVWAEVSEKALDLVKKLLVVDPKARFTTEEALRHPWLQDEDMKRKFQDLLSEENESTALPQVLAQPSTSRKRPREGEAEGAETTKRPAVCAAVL
UniProt Q9UPY3: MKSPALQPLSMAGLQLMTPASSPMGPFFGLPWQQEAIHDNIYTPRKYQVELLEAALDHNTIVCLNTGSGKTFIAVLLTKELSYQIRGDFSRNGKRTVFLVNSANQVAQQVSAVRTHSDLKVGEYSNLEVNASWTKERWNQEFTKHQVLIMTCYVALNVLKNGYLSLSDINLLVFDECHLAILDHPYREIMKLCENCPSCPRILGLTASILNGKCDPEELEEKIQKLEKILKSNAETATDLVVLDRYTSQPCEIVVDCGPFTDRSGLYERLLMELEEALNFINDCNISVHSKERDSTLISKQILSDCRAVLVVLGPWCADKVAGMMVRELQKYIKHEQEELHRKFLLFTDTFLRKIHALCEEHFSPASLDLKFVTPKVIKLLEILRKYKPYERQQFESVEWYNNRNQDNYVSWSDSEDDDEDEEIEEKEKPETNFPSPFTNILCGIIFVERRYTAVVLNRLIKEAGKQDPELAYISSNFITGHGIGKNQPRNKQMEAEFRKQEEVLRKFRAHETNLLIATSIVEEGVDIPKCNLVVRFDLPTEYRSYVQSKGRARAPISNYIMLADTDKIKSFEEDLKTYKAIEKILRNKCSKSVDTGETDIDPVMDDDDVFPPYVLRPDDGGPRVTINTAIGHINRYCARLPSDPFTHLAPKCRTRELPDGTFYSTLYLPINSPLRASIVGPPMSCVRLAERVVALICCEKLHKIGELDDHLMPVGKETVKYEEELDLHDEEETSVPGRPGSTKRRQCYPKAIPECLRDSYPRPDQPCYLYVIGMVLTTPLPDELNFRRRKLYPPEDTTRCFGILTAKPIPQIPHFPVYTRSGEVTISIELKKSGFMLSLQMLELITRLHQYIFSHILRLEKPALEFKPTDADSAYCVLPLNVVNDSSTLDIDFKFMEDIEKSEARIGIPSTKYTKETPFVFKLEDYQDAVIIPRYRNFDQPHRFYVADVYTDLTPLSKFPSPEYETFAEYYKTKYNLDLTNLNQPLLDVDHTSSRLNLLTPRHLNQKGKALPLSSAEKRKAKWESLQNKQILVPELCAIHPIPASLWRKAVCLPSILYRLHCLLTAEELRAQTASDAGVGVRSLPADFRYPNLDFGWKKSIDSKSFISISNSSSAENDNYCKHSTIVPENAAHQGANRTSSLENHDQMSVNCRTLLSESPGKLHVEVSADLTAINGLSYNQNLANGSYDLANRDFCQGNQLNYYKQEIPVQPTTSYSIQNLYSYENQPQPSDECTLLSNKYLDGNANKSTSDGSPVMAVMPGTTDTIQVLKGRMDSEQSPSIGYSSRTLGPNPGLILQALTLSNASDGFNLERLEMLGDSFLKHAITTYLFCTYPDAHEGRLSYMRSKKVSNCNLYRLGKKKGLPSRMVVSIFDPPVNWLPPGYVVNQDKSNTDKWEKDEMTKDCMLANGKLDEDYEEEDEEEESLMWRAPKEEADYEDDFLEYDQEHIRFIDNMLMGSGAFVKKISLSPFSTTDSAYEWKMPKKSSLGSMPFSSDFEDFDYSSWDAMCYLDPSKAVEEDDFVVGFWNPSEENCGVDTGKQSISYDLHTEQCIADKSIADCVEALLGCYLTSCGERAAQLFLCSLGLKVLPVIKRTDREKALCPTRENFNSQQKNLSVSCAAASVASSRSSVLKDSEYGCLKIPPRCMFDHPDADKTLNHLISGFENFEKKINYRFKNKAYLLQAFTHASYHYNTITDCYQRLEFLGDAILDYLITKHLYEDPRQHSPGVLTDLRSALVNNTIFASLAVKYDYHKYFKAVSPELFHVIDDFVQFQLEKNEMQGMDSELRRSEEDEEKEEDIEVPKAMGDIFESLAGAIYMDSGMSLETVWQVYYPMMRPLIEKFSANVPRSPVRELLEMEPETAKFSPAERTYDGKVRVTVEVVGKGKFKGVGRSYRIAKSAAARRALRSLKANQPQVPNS
UniProt Q13185: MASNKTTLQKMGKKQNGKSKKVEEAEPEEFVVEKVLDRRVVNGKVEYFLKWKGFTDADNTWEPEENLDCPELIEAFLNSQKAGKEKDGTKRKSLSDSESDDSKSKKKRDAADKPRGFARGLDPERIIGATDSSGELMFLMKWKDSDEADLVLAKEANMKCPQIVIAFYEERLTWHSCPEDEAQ

For experiment [2], the target named is tankyrase 1 (human (endogenous in HEK293T)) (UniProt O95271). In words: co-IP; HEK293T cells transfected with the tagged protein; lysates (TNE buffer) immunoprecipitated with anti-tankyrase IgG (endogenous tankyrase as bait) or control IgG, immunoblot.

Results are given in words; binding and its absence hold for the method and conditions named. Binding seen in cells or lysates may run through a third protein. Some binding calls cover weakened binding; strength is not graded here. For some assays here: Tags and fused reporters may be left off the sequences shown.

In the case of Axin1 (from UniProt O15169 1-862), the binding result in experiment [1] was “binds”. In the case of “Chk2 (CHEK2) (from UniProt O96017 1-543) (enzyme)”, the binding result in experiment [1] is “no binding”.

For “Dicer (from UniProt Q9UPY3 1-1922) (enzyme)”, in experiment [1], the binding entry was “binds”. Regarding HP1ϒ (CBX3) (from UniProt Q13185 1-183), the binding entry in experiment [1] is “no binding”. Turning to “tankyrase 1 (from UniProt O95271 1-1327) (enzyme)”, the binding result with GFP-NKD2 WT (human) is recorded as “binds”.

B1: HA-NKD1 (protein, UniProt Q969G9 1-470)
chain: MGKLHSKPAAVCKRRESPEGDSFAVSAAWARKGIEEWIGRQRCPGGVSGPRQLRLAGTIGRSTRELVGDVLRDTLSEEEEDDFRLEVALPPEKTDGLGSGDEKKMERVSEPCPGSKKQLKFEELQCDVSMEEDSRQEWTFTLYDFDNNGKVTREDITSLLHTIYEVVDSSVNHSPTSSKMLRVKLTVAPDGSQSKRSVLVNQADLQSARPRAETKPTEDLRSWEKKQRAPLRFQGDSRLEQSGCYHHCVDENIERRNHYLDLAGIENYTSQFGPGSPSVAQKSELPPRTSNPTRSRSHEPEAIHIPHRKPQGVDPASFHFLDTPIAKVSELQQRLRGTQDGSKHFVRSPKAQGKSVGVGHVARGARNKPPLGPAIPAVSPSAHLAASPALLPSLAPLGHKKHKHRAKESQQGCRGLQAPLASGGPVLGREHLRELPALVVYESQAGQPVQRHEHHHHHEHHHHYHHFYQT
In the case of B1, the binding result in experiment [2] is “binds”.

B2: NKD2 (Naked Cuticle Homolog 2) (protein, UniProt Q969F2 1-451)
chain: T1 sequence
Take B2: in experiment [1], the binding result was “binds”.

B3: GFP-NKD2 WT (protein, UniProt Q969F2 1-451)
chain: T1 sequence
In the case of B3, the binding entry in experiment [2] was “binds”.

Source of the values: publication PMC5738441.
